# Laboratory results from PubChem BioAssay AID485294 (National Center for Advancing Translational Sciences (NCATS), 2010).
# Screen size: about 370,000 compounds; about 150 (0.041%) were called active. The shares of active, inactive and inconclusive entries below differ from those in the screen. Calls follow the shape of the dose curve; as a rule, active = well fitted inhibition curve with a large enough effect; inconclusive = small, poorly fitted or top-dose-only effect; inactive = flat fitted curve, though single readings scatter. Potencies of inconclusive entries are left out as doubtful fits.
# Biological target: Beta-lactamase (Escherichia coli (strain K12)) (UniProt P00811)
# Chain of UniProt P00811 (P00811 whole entry, looked up): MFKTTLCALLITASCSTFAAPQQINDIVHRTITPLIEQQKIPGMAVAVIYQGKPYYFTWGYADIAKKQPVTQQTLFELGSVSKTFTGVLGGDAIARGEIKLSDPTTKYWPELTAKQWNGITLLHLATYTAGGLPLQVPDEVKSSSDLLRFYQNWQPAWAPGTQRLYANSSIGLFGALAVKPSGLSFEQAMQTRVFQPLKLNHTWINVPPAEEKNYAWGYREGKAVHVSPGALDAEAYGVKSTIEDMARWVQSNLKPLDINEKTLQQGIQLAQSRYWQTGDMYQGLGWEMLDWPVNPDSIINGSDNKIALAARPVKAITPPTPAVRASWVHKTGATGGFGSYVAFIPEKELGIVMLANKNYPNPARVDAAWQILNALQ
# Assay: qHTS Inhibitors of AmpC Beta-Lactamase (assay with detergent); also: nearly all actives have a fitted effect of over 25% in size;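 as to activity change, negative = inhibition: 0% = no-compound wells and -100% = no-enzyme wells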
# Conditions: AmpC hydrolysis of nitrocefin, absorbance 480 nm, 0.01% Triton; activity change, negative = inhibition: at 114 µM (top of the series)
# Method in brief: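 AmpC (5.3 nM in the dispensed reagent) in 20 mM phosphate pH 7.0 with 0.01% (detergent screen) or 0.0001% Triton X-100 was preincubated with compounds for 15 min at room temperature. Nitrocefin was then added from an 800 uM solution, and hydrolysis was followed at 480 nm.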
# Potency is read from the fitted curve at half-maximal effect; tags tell the direction and shape of the fitted curve.
Compound,Potency,"activity change, negative = inhibition"
O=S(=O)(NCc1ccccn1)c1ccc2ccccc2c1,"inconclusive [inhibitor, full curve]",
Cc1ccccc1NC(=O)CSc1nnc(Cc2ccccc2)o1,"inconclusive [inhibitor, partial curve]",
C=CCc1cc(C)cc(C)c1OCCn1cncn1,,inactive: -1.66%
CC(=O)N1c2ccc(S(=O)(=O)N3CCCC3)cc2CC1C(=O)NCc1ccc(OC(C)C)cc1 (configuration not stated),"inconclusive [inhibitor, full curve, poor fit]",
COc1ccc(C)cc1NC(=O)c1cc2ccccn2n1,,inactive: 0.901%
COc1ccc(-n2c(CCc3ccccc3)nnc2SCC(=O)c2ccccc2)cc1,"inconclusive [inhibitor, partial curve]",
Cc1ccccc1C(=O)N1CCN(c2ncnc3c2cnn3-c2ccccc2)CC1,"inconclusive [inhibitor, full curve, poor fit]",
COc1ccc(NC(=O)c2cc(-c3ccccn3)nc3ccccc23)cc1S(=O)(=O)N(C)C,,inactive: -5.05%
O=C(O)C(Oc1ccc2cc(-c3ccc(Cl)cc3)c(=O)oc2c1)c1ccccc1 (configuration not stated),"inconclusive [inhibitor, full curve, poor fit]",
CN1CCC(=NNC(=O)COc2ccc(Cl)cc2)CC1,"inconclusive [inhibitor, full curve, poor fit]",
CC(=O)Nc1ccc(NC(=O)/C=C/c2ccc(Cl)cc2)cc1,"inconclusive [inhibitor, single point]",
CC1CCCN(CC(=O)NC(=O)NC2CCCCC2)C1 (configuration not stated),"inconclusive [inhibitor, full curve, poor fit]",
CCn1cc(C(=O)OCC(=O)Nc2c(C)n(C)n(-c3ccccc3)c2=O)c(=O)c2ccc(C)nc21,"inconclusive [inhibitor, full curve, poor fit]",
O=C(NCc1ccc(F)cc1)C(=O)NCC1CCCN1S(=O)(=O)c1ccccc1 (configuration not stated),"inconclusive [inhibitor, full curve]",
O=C(CCCn1nnc(-c2cccnc2)n1)c1ccc(F)cc1,"inconclusive [inhibitor, partial curve]",
CC(=O)NC(CCS(C)(=O)=O)C(=O)Nc1cccc(Cl)c1Cl (configuration not stated),"inconclusive [inhibitor, partial curve, poor fit]",
COc1ccc(Nc2nnc(-c3ccc(C)c(S(=O)(=O)NCc4nc5ccccc5[nH]4)c3)c3ccccc23)cc1,,inactive: 2.2%
COCCCn1c(SCC(=O)Nc2oc(C)c3c(C)n[nH]c(=O)c23)nc2sc3c(c2c1=O)CCC3,"inconclusive [inhibitor, full curve, poor fit]",
COc1cccc(C(=O)O/N=C(\N)c2ccc([N+](=O)[O-])cc2)c1,"inconclusive [inhibitor, full curve, poor fit]",
Cc1ccc(CNC(=O)Nc2ccc(C)cc2)cc1,"inconclusive [inhibitor, full curve, poor fit]",
CCN(CCn1cccn1)Cc1nc(Cc2cccc(F)c2)no1,,inactive: -4.43%
COc1ccc(C2NC(=O)NC(C)=C2C(=O)Nc2cc(C)ccc2C)cc1OC (configuration not stated),"inconclusive [inhibitor, full curve, poor fit]",
CCOc1ccccc1C(=O)NC1(C(F)(F)F)C(=O)Nc2c1c(=O)[nH]c(=O)n2-c1ccccc1 (configuration not stated),,inactive: -4.17%

Compound,Potency,"activity change, negative = inhibition"
O=C(c1ccc(Cl)cc1)N1C2C=CC(C2)C1(C(F)(F)F)C(F)(F)F (configuration not stated),"inconclusive [inhibitor, full curve]",
Cc1ccccc1-n1c(C)nnc1SCC(=O)NCC1CCCO1 (configuration not stated),"inconclusive [inhibitor, single point]",
COC(=O)c1ccc(CS(=O)(=O)c2ccc(C)cc2)o1,,inactive: -12.7%
COc1ccc(S(=O)(=O)N2CCN(CC(=O)N3CCc4ccccc4C3)CC2)cc1OC,,inactive: 0.929%
CC(O)CNc1nc2c(c(=O)n(Cc3ccccc3)c(=O)n2C)n1C (configuration not stated),"inconclusive [inhibitor, full curve, poor fit]",
Cc1cc(Br)c(OCc2ccc(C(=O)N/N=C3\CC4CC=CC34)cc2)c(Br)c1 (configuration not stated),"inconclusive [inhibitor, full curve, poor fit]",
COc1cc(S(=O)(=O)N2CCN(C)CC2)c(OC)cc1Br,"inconclusive [inhibitor, full curve]",
CC1CCN(c2oc(Cc3cccc4ccccc34)nc2C#N)CC1,"inconclusive [inhibitor, full curve, poor fit]",
CC(C)C[C@H](N)c1nnc(S(=O)(=O)Cc2ccc(F)cc2)o1,active: 1.41 µM,
Cc1ccc(N(CC(=O)NCc2ccccc2Cl)S(=O)(=O)c2c(C)noc2C)cc1,"inconclusive [inhibitor, full curve, poor fit]",
O=[N+]([O-])c1ccc(Cl)c(-c2ccc(/C=N/n3cnnc3)o2)c1,"inconclusive [inhibitor, partial curve, poor fit]",
CCC(=O)N1CCC2(CC1)Oc1ccc(Cl)cc1C(=O)C21CC(c2ccccc2)=NO1 (configuration not stated),,inactive: 0.828%
Cc1cccc(CSCCNC(=O)COc2ccc(Cl)cc2)c1,,inactive: -1.91%
Nc1c(C(=O)NC23CC4CC(CC(C4)C2)C3)sc2nc3c(c(C(F)(F)F)c12)CCC3,"inconclusive [inhibitor, full curve, poor fit]",
OC1C[N+]2(CCCCC2)C1,"inconclusive [inhibitor, partial curve, poor fit]",
Cc1cc(C(=O)CSc2nc3ccccc3[nH]2)c(C)n1Cc1ccco1,,inactive: -13%
COC(=O)/C=C1/SC(=NC(=O)c2ccc(F)cc2)NC1=O,,inactive: -6.39%
O=C(NCC1CCCN1S(=O)(=O)c1cccs1)C(=O)Nc1ccc(F)cc1 (configuration not stated),"inconclusive [inhibitor, full curve, poor fit]",
CNC(=O)Nc1ccccc1F,,inactive: -1.53%
COc1ccccc1C(=O)NCC(=O)OCC(=O)N1CC(C)OC(C)C1 (configuration not stated),"inconclusive [inhibitor, partial curve]",
CC[n+]1ccc(C)c2cc(S(=O)C(F)(F)F)ccc21 (configuration not stated),,inactive: -5.54%
CCCCN(C)CCNC(=O)C(NC(=O)C1CCC(C)CC1)C(C)C (configuration not stated),"inconclusive [inhibitor, partial curve]",
CCCOC(=O)c1ccc(-n2nnnc2SCC(=O)N2CCCCC2)cc1,"inconclusive [inhibitor, full curve, poor fit]",

Compound,Potency,"activity change, negative = inhibition"
O=C(CSCc1cccc(CSCC(=O)Nc2ccc3ccccc3c2)n1)Nc1ccc2ccccc2c1,"inconclusive [inhibitor, full curve, poor fit]",
COc1ccc(-n2c(Cc3cccn3C)nnc2SCC(=O)Nc2cccc(F)c2)cc1,"inconclusive [inhibitor, full curve]",
NC(=O)c1ccc(NC(=O)COC(=O)CNC(=O)c2sc3ccccc3c2Cl)cc1,"inconclusive [inhibitor, partial curve]",
C/C(=N\NC(=O)c1c[nH]c2ccccc12)c1ccccn1,,inactive: 4.92%
O=C(OCC(=O)N1CCOCC1)c1ccc(Br)cc1,"inconclusive [inhibitor, full curve, poor fit]",
CCCCn1c(CCC)nc([N+](=O)[O-])c1Sc1ccc(Cl)cn1,,inactive: -5.68%
COC1CC(OC2CCC3(C)C(CCC4C3CCC3(C)C(C5=CC(=O)OC5)C(OC(C)=O)CC43O)C2)OC(C)C1OC1OC(COC2OC(CO)C(O)C(O)C2O)C(O)C(O)C1O (configuration not stated),,inactive: 4.44%
CC(=O)CCc1c(C)c2cc(C)ccc2[nH]c1=O,"inconclusive [inhibitor, full curve, poor fit]",
Cc1ccc(C)c(NC(=O)CN(C)C(=O)c2sccc2C)c1,,inactive: 0%
CCN1C(=O)[C@H]2[C@@H](c3ccc(-c4ccccc4)cc3)N3CCCC[C@@]3(C(=O)OC)[C@H]2C1=O,,inactive: -9.93%
CCC(C)c1ccccc1N1CC(C(=O)N2CCN(S(=O)(=O)c3ccccc3Br)CC2)CC1=O (configuration not stated),"inconclusive [inhibitor, full curve]",
CCc1ccc(NC(=O)c2noc3c2CCCCC3)cc1,"inconclusive [inhibitor, full curve, poor fit]",
Nn1c(SCC(=O)NCC2CCCO2)nnc1-c1cc(Cl)ccc1Cl (configuration not stated),"inconclusive [inhibitor, partial curve, poor fit]",
O=C(CCS(=O)(=O)c1cc2c3c(c1)CCN3C(=O)CC2)NCc1ccc(F)cc1,,inactive: -6.91%
COc1cccc(Nc2ncnc3c2cnn3-c2cccc(C)c2)c1,"inconclusive [inhibitor, partial curve, poor fit]",
COc1ccc(Cl)cc1Nc1ncnc2c1nc1n2CCCC1,,inactive: 16%
COC(=O)c1ccc(N=NNc2cccc(Br)c2)cc1,"inconclusive [inhibitor, full curve]",
Cc1ccc(S(=O)(=O)N(C)c2ccc3c(ncn3C)c2[N+](=O)[O-])cc1,"inconclusive [inhibitor, full curve, poor fit]",
CCN(CC)C(=O)N1CCN(S(=O)(=O)c2ccc(C)cc2)CC1,"inconclusive [inhibitor, single point]",
N#Cc1c(NC(=O)/C=C/C(=O)O)sc2c1CCN(Cc1ccccc1)C2,,inactive: -0.601%
CSc1ccccc1OCc1cc(C(=O)N2C[C@H]3CC[C@H]2C3)no1,"inconclusive [inhibitor, full curve, poor fit]",
